Z-score data for 29 compounds are collected here from PubChem BioAssay AID488969 (Vanderbilt High Throughput Screening Facility, 2010).

Whole data set: some 110,000 compounds, median “z-score” near -0.1, cut for the highest 2% near 2. This is one part of the list.

For this test, the target named is Metabotropic glutamate receptor 8 (Rattus norvegicus) (UniProt P70579). The test can be described thus: mGluR8 Gi/Go-coupled signaling modulation – cell-based, rat, thallium flux, HTS, primary screen (AID 488969). The settings on record: HEK293 rat mGluR8, GIRK (G protein-gated inwardly rectifying potassium channel) thallium flux, FluoZin2; at 10 µM; stronger effect = higher value; submaximal glutamate (EC20) added with thallium.
Sequence of UniProt P70579 (P70579 whole entry, looked up): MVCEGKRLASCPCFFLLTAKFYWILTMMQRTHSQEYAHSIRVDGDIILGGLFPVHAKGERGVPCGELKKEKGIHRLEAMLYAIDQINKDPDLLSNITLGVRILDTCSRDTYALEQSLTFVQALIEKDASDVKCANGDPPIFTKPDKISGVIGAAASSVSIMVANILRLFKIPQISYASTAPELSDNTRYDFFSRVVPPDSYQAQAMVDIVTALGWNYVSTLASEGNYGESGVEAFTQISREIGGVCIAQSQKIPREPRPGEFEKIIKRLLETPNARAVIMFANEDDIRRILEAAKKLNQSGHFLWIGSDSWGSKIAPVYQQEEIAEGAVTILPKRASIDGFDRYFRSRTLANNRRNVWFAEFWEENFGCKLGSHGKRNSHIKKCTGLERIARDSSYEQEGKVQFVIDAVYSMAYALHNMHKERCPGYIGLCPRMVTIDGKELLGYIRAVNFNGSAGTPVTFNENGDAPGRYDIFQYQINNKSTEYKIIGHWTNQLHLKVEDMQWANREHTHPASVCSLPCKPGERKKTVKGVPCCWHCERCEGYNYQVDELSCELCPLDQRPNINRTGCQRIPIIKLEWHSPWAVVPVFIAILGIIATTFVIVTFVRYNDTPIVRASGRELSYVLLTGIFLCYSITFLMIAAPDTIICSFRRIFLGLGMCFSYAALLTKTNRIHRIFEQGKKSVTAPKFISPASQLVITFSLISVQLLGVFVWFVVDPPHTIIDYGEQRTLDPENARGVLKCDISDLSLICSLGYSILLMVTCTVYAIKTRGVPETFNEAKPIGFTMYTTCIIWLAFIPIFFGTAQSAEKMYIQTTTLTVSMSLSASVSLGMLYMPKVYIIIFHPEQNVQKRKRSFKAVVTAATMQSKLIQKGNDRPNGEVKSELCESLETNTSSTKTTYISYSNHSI
For the compound `CC(=O)c1sc(NC(=O)CN2C(=O)CCC2=O)nc1C`, the z-score came out at 0.288.

Take `O=C(O)CCN1/C(=C/C=Nc2ccccc2)Oc2ccccc21`: the z-score was -0.32.

With `CCOC(=O)N1CCC(Nc2ccc3nnc(-c4ccccc4)n3n2)CC1`, the z-score was -0.665.

As to `COc1ccc(S(=O)(=O)N2CCCCC2)cc1NC(=S)Nc1ccccc1`, the z-score is -0.00191.

With `COc1ccc(-n2nc(C(=O)O)nc2-c2ccccc2)cc1`, the z-score was -0.0709. The result for `O=C(NCc1ccco1)c1nnc(Cc2ccc(Cl)cc2)o1` reads 0.217. On to `CC1=C(C(=O)OCc2ccccc2)C(/C=C/c2ccccc2)NC(=S)N1` (centres undefined), for which the z-score was -0.173. `Cc1ccc(-c2nc3ccccn3c2NC(=O)c2ccco2)cc1` gave a z-score of 0.65. The result for `COc1ccc(C(C)=O)cc1CSc1nnc(C)n1-c1ccccc1` reads 0.0069; that for `CC(Cc1ccccc1)NC(=O)C1(c2ccccc2)CCOCC1` (centres undefined), -0.096.

Compound `C/C(=N\NC(=O)C1CCCN(S(=O)(=O)c2ccccc2)C1)c1ccncc1` (centres undefined) came in with a z-score of -0.155.

Take `O=C(COC(=O)CC(c1ccccc1)c1ccccc1)Nc1cccc(F)c1`: the z-score is -0.211. The result for `COCCn1c(=NC(=O)c2nc3ccccc3s2)sc2cc(S(C)(=O)=O)ccc21` reads 0.125; that for `CC(C)(C)n1c(=O)[nH]c2c(c1=O)CCC2`, -0.464; that for `COc1ccc(NC(=O)C2c3cc(OC)c(OC)cc3C(=O)N(C)C2c2cccnc2)cc1OC` (centres undefined), 0.738. With `NC(=O)c1sc(=S)n(-c2ccc(Br)cc2)c1N`, the z-score was found to be 0.583. The result for `CCOC(=O)CSC1=Nc2ccccc2C2=NC(CC(=O)NCc3ccccc3)C(=O)N12` (centres undefined) reads 2.91; that for `Cc1ccc(-c2noc(CCC(=O)Nc3ccc(C)cn3)n2)cc1`, 0.185.

Compound `CCCCOc1cccc(C2(C(=O)O)CCCC2)c1` had a z-score of -0.346. The figure for `O=C1[C@@H]2[C@H](C(=O)N1n1cnnc1)[C@H]1C=C[C@@H]2C1` is 0.215. Turning to `Cc1cccc(NC(=O)c2sc(Cl)nc2C)c1C`, the z-score turned out to be 0.181. `CCOC(=O)Cc1csc(NC(=O)CSc2nnc(Cc3csc(N)n3)n2C)n1` registered a z-score of -0.281. `O=C(NCCc1ccccn1)C(F)(F)C(F)(F)C(F)(F)C(F)(F)C(F)(F)C(F)(F)C(F)(F)C(F)F`: the z-score was -0.304. The figure for `CCN(CC)S(=O)(=O)c1ccc(NC(=O)COC(=O)CN2C(=O)c3ccccc3C2=O)cc1` is -0.531; for `COc1ccc(S(=O)(=O)NCc2ccc(C(=O)N(C)Cc3ccco3)cc2)cc1` it is -0.126. The result for `Cc1cc(C)n(CC(O)COc2cccc(OCC(O)Cn3nc(C)cc3C)c2)n1` (centres undefined) reads 1.67; that for `CC1CN(S(=O)(=O)c2cccc(C(=O)NN3CCN(C)CC3)c2)CC(C)O1` (centres undefined), -0.128. The figure for `N#Cc1nc(COc2ccc(Br)cc2)oc1N1CCN(Cc2ccccc2)CC1` is -0.248; for `FC(F)(F)c1cc(-c2cccs2)nc(-n2cc(Br)cn2)n1` it is -0.203.
